# Measurements from publication PMC5700166.
# Only a part is listed here, and it is no random draw. The list includes weakly bound sequences.
# Experiments:
# Test in all cases: protein-binding microarray (PBM)
# Conditions in all cases: PBM: ~300 nM protein, 6 mM HEPES pH 7.8, 80 mM KCl, 0.5 mM EDTA, 0.5 mM EGTA, 6% glycerol, 35 ng/ul poly-dIdC, 1% milk, 1 h, room temperature; Ap Aiptasia and Nv Nematostella (sea anemones) / Co Capsaspora / Aq Amphimedon (sponge) / Dm Drosophila / Hu human; RHD is the Rel homology domain; high values mean tight binding; most listed sequences are background and not binding sites; double strand, one strand shown
# GST-Ap-NF-kB RHD = target: T1, GST-Ap-NF-kB RHD (UniProt A0A913YAJ5)
# T1 sequence: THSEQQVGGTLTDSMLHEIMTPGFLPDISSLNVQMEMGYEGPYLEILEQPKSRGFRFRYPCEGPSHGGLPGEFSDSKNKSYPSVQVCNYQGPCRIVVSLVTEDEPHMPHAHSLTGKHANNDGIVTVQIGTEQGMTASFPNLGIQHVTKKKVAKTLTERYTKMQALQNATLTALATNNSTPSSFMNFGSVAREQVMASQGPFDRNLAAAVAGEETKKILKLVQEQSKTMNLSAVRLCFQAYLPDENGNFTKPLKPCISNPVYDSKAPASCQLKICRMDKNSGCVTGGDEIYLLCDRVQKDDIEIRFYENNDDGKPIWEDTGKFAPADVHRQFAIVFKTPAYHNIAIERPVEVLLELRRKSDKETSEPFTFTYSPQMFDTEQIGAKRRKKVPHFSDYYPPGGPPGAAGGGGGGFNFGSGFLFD
# [1] = target: T2, GST-Nv-NF-kB (Cys allele) (UniProt E5G601)
# T2 sequence: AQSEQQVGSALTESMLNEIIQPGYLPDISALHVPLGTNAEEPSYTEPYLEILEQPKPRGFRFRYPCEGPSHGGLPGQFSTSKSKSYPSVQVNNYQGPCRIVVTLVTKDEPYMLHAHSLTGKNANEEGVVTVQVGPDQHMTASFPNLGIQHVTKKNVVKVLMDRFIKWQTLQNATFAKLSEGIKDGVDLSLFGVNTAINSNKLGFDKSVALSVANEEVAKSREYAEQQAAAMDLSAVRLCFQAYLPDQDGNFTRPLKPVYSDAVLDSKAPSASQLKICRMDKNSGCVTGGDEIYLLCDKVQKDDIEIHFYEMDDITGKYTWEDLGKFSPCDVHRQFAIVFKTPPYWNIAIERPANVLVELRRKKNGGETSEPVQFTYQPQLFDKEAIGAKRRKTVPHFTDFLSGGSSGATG
# GST-Co-NF-kB = target: T3, GST-Co-NF-kB (UniProt F1ARL5)
# T3 sequence: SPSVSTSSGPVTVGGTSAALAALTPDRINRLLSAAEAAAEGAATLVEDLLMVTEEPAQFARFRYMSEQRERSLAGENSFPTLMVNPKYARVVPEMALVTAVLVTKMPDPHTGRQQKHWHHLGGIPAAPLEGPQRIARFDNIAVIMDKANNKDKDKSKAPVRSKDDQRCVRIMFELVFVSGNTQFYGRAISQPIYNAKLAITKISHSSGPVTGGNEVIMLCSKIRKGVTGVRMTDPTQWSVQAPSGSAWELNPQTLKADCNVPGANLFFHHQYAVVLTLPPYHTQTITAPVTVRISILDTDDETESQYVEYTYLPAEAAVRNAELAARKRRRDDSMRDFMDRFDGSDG
# GST-Dm-Relish = target: T4, GST-Dm-Relish (UniProt Q94527)
# T4 sequence: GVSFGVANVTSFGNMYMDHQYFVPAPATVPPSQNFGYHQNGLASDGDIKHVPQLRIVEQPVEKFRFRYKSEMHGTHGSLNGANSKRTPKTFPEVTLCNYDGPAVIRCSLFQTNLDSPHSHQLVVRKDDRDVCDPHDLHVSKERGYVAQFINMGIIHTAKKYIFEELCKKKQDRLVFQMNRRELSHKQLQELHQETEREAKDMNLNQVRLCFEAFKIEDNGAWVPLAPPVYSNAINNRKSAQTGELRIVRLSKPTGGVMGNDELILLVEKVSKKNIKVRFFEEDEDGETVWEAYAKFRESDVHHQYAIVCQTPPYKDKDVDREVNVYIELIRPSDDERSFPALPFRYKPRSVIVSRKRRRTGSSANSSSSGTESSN
# GST-Aq-NF-kB = target: T5, GST-Aq-NF-kB (UniProt A9Y5G7)
# T5 sequence: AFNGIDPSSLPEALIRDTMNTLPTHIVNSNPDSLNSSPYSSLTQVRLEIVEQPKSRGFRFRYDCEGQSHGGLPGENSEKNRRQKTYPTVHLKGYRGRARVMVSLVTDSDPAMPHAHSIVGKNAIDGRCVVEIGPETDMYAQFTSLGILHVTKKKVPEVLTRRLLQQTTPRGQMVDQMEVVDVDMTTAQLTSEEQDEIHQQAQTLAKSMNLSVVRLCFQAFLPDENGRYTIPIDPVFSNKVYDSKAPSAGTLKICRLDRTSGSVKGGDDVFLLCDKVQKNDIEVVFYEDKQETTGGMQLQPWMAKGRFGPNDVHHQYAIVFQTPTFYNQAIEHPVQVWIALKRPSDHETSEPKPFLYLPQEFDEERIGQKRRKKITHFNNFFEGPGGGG
Sequence,binding signal (GST-Ap-NF-kB RHD),binding signal [1],binding signal (GST-Co-NF-kB),binding signal (GST-Dm-Relish),binding signal (GST-Aq-NF-kB)
CCGATTAACATCAAGCGAATGTATGATGTTAATCGGGTCTTGATTCGCTTGACGCTGCTG,-0.283 z-score,-0.261 z-score,-0.153 z-score,-0.434 z-score,-0.207 z-score
CCGATTAACATCAGAGGTGCTTCTGATGTTAATCGGGTCTTGATTCGCTTGACGCTGCTG,-0.0333 z-score,0.709 z-score,-1.09 z-score,0.656 z-score,0.271 z-score
CCGATTAACATCACGTGATTTCCTGATGTTAATCGGGTCTTGATTCGCTTGACGCTGCTG,-0.257 z-score,-0.0524 z-score,0.754 z-score,4.11 z-score,0.831 z-score
CCGATTAACATCACGTTGACTCGTGATGTTAATCGGGTCTTGATTCGCTTGACGCTGCTG,-0.731 z-score,-0.981 z-score,-1.55 z-score,-0.305 z-score,-0.548 z-score
CCGATTAACATCACTGGAAAGGATGATGTTAATCGGGTCTTGATTCGCTTGACGCTGCTG,0.159 z-score,-0.206 z-score,0.378 z-score,0.021 z-score,-0.0719 z-score
CCGATTAACATCATGGTGCTAAGTGATGTTAATCGGGTCTTGATTCGCTTGACGCTGCTG,0.0933 z-score,0.125 z-score,0.609 z-score,-0.0072 z-score,-0.27 z-score
CCGATTAACATCATATTGGATCTTGATGTTAATCGGGTCTTGATTCGCTTGACGCTGCTG,-0.59 z-score,-0.405 z-score,-0.502 z-score,-0.719 z-score,-0.4 z-score
CCGATTAACATCATTCCGGAAAATGATGTTAATCGGGTCTTGATTCGCTTGACGCTGCTG,0.0281 z-score,0.694 z-score,-0.832 z-score,-0.154 z-score,0.636 z-score
CCGATTAACATCACGTAAATCCATGATGTTAATCGGGTCTTGATTCGCTTGACGCTGCTG,-0.671 z-score,-0.161 z-score,0.611 z-score,1 z-score,-0.341 z-score
CCGATTAACATCAGTATACGACGTGATGTTAATCGGGTCTTGATTCGCTTGACGCTGCTG,-0.252 z-score,-1.02 z-score,-0.395 z-score,-0.776 z-score,-0.75 z-score
CCGATTAACATCAGTGAGTTCTATGATGTTAATCGGGTCTTGATTCGCTTGACGCTGCTG,-0.324 z-score,-0.399 z-score,-0.125 z-score,0.0233 z-score,-0.365 z-score
CCGATTAACATCACCAAGTATAGTGATGTTAATCGGGTCTTGATTCGCTTGACGCTGCTG,-0.233 z-score,-0.0471 z-score,1.42 z-score,0.452 z-score,-0.273 z-score
CCGATTAACATCACGTGTCACGCTGATGTTAATCGGGTCTTGATTCGCTTGACGCTGCTG,-0.483 z-score,0.234 z-score,-1.1 z-score,-0.785 z-score,-0.601 z-score
CCGATTAACATCACAAACGACAGTGATGTTAATCGGGTCTTGATTCGCTTGACGCTGCTG,-0.869 z-score,0.173 z-score,-0.242 z-score,0.854 z-score,-0.344 z-score
CCGATTAACATCACAATAGGCGATGATGTTAATCGGGTCTTGATTCGCTTGACGCTGCTG,-0.355 z-score,-0.2 z-score,0.114 z-score,0.125 z-score,-0.114 z-score
CCGATTAACATCAACGTCATTGGTGATGTTAATCGGGTCTTGATTCGCTTGACGCTGCTG,0.21 z-score,0.212 z-score,0.284 z-score,0.307 z-score,-0.156 z-score
CCGATTAACATCACGGAAACCAGTGATGTTAATCGGGTCTTGATTCGCTTGACGCTGCTG,-0.574 z-score,0.0824 z-score,0.356 z-score,0.249 z-score,-0.397 z-score
CCGATTAACATCAGTTGACATAGTGATGTTAATCGGGTCTTGATTCGCTTGACGCTGCTG,-0.266 z-score,0.0898 z-score,-0.309 z-score,-0.161 z-score,-0.0904 z-score
CCGATTAACATCAGTGCTGACCGTGATGTTAATCGGGTCTTGATTCGCTTGACGCTGCTG,-0.124 z-score,0.00688 z-score,0.223 z-score,-0.374 z-score,-0.0959 z-score
CCGATTAACATCACTACACGAGCTGATGTTAATCGGGTCTTGATTCGCTTGACGCTGCTG,0.379 z-score,-0.279 z-score,0.14 z-score,0.361 z-score,-0.285 z-score
CCGATTAACATCACTCGCCTTCTTGATGTTAATCGGGTCTTGATTCGCTTGACGCTGCTG,-0.0181 z-score,-0.258 z-score,0.563 z-score,-0.436 z-score,-0.39 z-score
CCGATTAACATCAGCGCAAGATATGATGTTAATCGGGTCTTGATTCGCTTGACGCTGCTG,-0.534 z-score,-0.378 z-score,-0.426 z-score,-0.315 z-score,-0.185 z-score
CCGATTAACATCAGGAAATACTATGATGTTAATCGGGTCTTGATTCGCTTGACGCTGCTG,0.29 z-score,-0.104 z-score,0.595 z-score,0.289 z-score,0.341 z-score
CCGATTAACATCACGATCTCTGTTGATGTTAATCGGGTCTTGATTCGCTTGACGCTGCTG,-0.192 z-score,-0.991 z-score,-0.516 z-score,-0.621 z-score,-0.327 z-score
CCGATTAACATCAGCAAAATTCCTGATGTTAATCGGGTCTTGATTCGCTTGACGCTGCTG,-0.345 z-score,-0.0749 z-score,-0.779 z-score,0.903 z-score,1.04 z-score
CCGATTAACATCACCAGGGTCCTTGATGTTAATCGGGTCTTGATTCGCTTGACGCTGCTG,-0.0562 z-score,-1.07 z-score,0.0911 z-score,0.09 z-score,0.0627 z-score
CCGATTAACATCAGTTCCAACAATGATGTTAATCGGGTCTTGATTCGCTTGACGCTGCTG,-0.197 z-score,-0.474 z-score,-0.343 z-score,-1.06 z-score,-0.569 z-score
